Several values for one entry are separate records, joined by “and”; a condition that tells them apart may be missing. Equal entries are not always repeated. Over roughly 110,000 compounds, “z-score” has its median near -0.1; the highest 2% begin near 2. The list shows a part of the results. Activity calls are given as the source filed them.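 The calls were made as follows: active = z-score in the third read window above 3 or below -3; inactive = the rest.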

Data on 113 molecules can be found in PubChem BioAssay AID488969 (Vanderbilt High Throughput Screening Facility, 2010).

This assay addresses Metabotropic glutamate receptor 8 (Rattus norvegicus) (UniProt P70579). Put plainly: mGluR8 Gi/Go-coupled signaling modulation – cell-based, rat, thallium flux, HTS, primary screen (AID 488969). To be noted: HEK293 rat mGluR8, GIRK (G protein-gated inwardly rectifying potassium channel) thallium flux, FluoZin2; at 10 µM; stronger effect = higher value; submaximal glutamate (EC20) added with thallium.
Sequence of UniProt P70579 (P70579 whole entry, looked up): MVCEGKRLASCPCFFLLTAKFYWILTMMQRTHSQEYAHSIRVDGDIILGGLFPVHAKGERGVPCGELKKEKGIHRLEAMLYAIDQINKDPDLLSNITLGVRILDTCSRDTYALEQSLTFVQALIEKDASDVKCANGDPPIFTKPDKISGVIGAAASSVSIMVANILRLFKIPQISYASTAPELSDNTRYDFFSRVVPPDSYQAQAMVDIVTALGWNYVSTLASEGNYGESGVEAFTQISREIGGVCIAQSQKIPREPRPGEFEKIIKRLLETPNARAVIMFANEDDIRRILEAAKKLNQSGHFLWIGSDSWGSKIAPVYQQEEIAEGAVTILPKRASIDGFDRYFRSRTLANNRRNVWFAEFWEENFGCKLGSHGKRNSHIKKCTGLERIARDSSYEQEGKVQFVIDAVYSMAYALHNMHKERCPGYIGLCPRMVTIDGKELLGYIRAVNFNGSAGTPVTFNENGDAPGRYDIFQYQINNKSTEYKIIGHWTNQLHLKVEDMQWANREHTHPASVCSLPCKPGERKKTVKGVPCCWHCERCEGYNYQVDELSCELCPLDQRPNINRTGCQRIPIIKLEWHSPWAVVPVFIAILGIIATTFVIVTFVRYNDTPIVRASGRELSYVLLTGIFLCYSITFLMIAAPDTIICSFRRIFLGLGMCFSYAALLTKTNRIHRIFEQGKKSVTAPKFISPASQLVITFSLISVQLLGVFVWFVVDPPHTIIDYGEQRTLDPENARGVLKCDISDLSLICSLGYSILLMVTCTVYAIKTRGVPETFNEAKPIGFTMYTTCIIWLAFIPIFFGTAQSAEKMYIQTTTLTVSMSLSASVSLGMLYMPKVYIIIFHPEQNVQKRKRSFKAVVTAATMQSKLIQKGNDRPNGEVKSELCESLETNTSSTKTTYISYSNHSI
As to `Cc1ccc(-n2cnc3c(sc4nccc(N(C)C)c43)c2=O)cc1`, the z-score is -0.138. Under `Cc1ccc(CCN2CC(C(=O)NCCN3CCOCC3)CC2=O)cc1` (stereo not drawn) stands -0.00749; under `CSCCC(NC(=O)c1ccccc1)C(=O)Nc1ccc(NC(C)=O)cc1` (stereo not drawn), -0.112; under `O=C(NC1CC1)c1nc2c(nnn2Cc2ccccc2Cl)c(=O)[nH]1`, -2.43. Under `CCOC(=O)c1ccc(N2C(=O)CC(N(C)CCc3ccc(OC)c(OC)c3)C2=O)cc1` (stereo not drawn) stands -0.142. As to `COc1nc(-c2ccccc2)c2c(c1C#N)CC(C)(C)OC2`, the z-score is -0.906. For the molecule `CO/N=C(\Cn1ncc(N2CCCC2)c(Br)c1=O)c1ccc(Cl)cc1`, the z-score is active: -3.59. In the case of `C=Cn1nc(C)c2ccccc2c1=O`, the z-score came out at 0.236. In the case of `C=CCn1c(SC2CCOC2=O)nc2scc(C3CC3)c2c1=O` (stereo not drawn), the z-score was -1.67. Under `CCn1c(SCC(=O)N2c3ccccc3Sc3ccc(Cl)cc32)nc2c1c(=O)n(C)c(=O)n2C` stands -0.113; under `COC(=O)c1sccc1-c1ccc(/C=N/OCc2c(Cl)cccc2Cl)o1`, -0.187. Under `CCOC(=O)c1c(-c2ccc(F)cc2)csc1NC(=O)CCN1CCOCC1` stands -1.1; under `Cc1ccc(S(=O)(=O)N2CCN(c3ccc([N+](=O)[O-])c4cccnc34)CC2)cc1`, -0.299; under `COc1ccc([N+](=O)[O-])cc1N(CC(=O)NCCC1=CCCCC1)S(C)(=O)=O`, -0.391. For the molecule `CCCCOC(=O)Nc1cccc(C(=O)OCC)c1`, the z-score was -0.438.

As for `C=CCSc1nc(N)c(C#N)c(-c2ccc(C)cc2)c1C#N`, the z-score was 0.664. Molecule `CC1(C)CC(=O)C(C=Nc2cccnc2)=C(O)C1` gave a z-score of 0.759. Under `CC1CCN(C(=O)c2ccc(N(C)S(C)(=O)=O)cc2)CC1` stands -0.0497; under `O=C(c1cccs1)N1CCN(S(=O)(=O)c2ccccc2)CC1`, -0.416; under `CCOC(=O)c1ccc(S(=O)(=O)NC2CCCCCCC2)n1C`, -0.208. In turn, `CC(C)COC(=O)c1cc(=O)[nH]c2ccccc12` gave a z-score of 1.23. As to `O=c1c(-c2ccc3c(c2)OCCO3)coc2cc(O)cc(O)c12`, the z-score amounted to 0.199. `Cc1cc(/C=N\NC(=O)CC(=O)NC2CCCCC2)c(C)n1-c1ccc(Cl)c(Cl)c1` had a z-score of 0.0786. In turn, `COc1ccc(C(=O)OCC(=O)Nc2ccc(OC(F)F)cc2)c(OC)c1` displayed a z-score of -0.522.

For `O=C(Nc1ccc(NC(=O)c2cccs2)cc1)c1ccco1`, the z-score is -0.141. Regarding `Brc1ccccc1CN1CCC(N2CCCCC2)CC1`, the z-score was -0.199.

`CC(=O)N/N=C/c1cc([N+](=O)[O-])ccc1OCCOc1ccccc1` displayed a z-score of 0.0581.

`CCn1c(SCC(=O)N2c3ccccc3CCc3ccccc32)nc2c1c(=O)n(C)c(=O)n2C`: the z-score was -0.33. With `O=C(CSc1ccc2ccccc2n1)NCCC1=CCCCC1` the figure was -0.282; with `COc1ccc(C(=O)NN2C(=O)C3CCC(C)(C2=O)C3(C)C)cc1` (stereo not drawn), -0.0665; with `COc1ccc(CNCC(O)(c2ccc(Cl)cc2)c2ccc(Cl)cc2)cc1OC`, -0.801. With `Cc1cc(C#N)c2ccccc2n1` the figure was -0.0631; with `O=C(NNc1nc(-c2ccccc2)cs1)c1ccco1`, -0.43; with `CC(=O)Nc1ccc(NC(=O)CN2CCCC(C)C2)c(Cl)c1` (stereo not drawn), -0.137.

For `O=C(CCSCc1ccc(Cl)cc1)NC1CCCC1`, the z-score was -0.0852.

With `COc1ccc(C2CC(c3ccccc3)=NN2C(=O)COC(=O)c2cccnc2Cl)cc1` (stereo not drawn), the z-score is 0.0845. With `Cc1cc(N2CCC(C)CC2)c(F)cc1[N+](=O)[O-]` the figure was 0.00178; with `CCCc1cc(=O)[nH]c(SCc2cccnc2)n1`, -0.521; with `Cn1nc(C(F)(F)F)c(C(=O)Nc2ccc(F)cc2F)c1Sc1cccc(Cl)c1`, -0.0899. The molecule `c1csc(-c2nnc(N3CCCCCC3)c3ccccc23)c1` came in with a z-score of -0.351. In the case of `COc1ccc(C(=O)Nc2ccc(OCc3ccccc3)cc2)cc1[N+](=O)[O-]`, the z-score was 0.0206.

In turn, `CCOC(=O)/N=C(/NC(=O)Nc1ccc(C(=O)OCC)cc1)OC` yielded a z-score of 0.152. Under `Cc1ccccc1C(=O)N[C@H](C(=O)Nc1ccc(Cl)c(Cl)c1)C(C)C` stands 0.82; under `CC1(C)S/C(=N/N=C/c2ccco2)NC1=O`, -0.194; under `CCCC1=NCCn2cccc21`, 0.38. `O=C(Cc1ccccc1)N/N=C/c1ccc([N+](=O)[O-])s1` yielded a z-score of 0.543. Under `Cn1cccc1/C=C1\SC(=S)N(CC(=O)O)C1=O` stands -0.209; under `O=[N+]([O-])c1ccc(S(=O)(=O)NCC2CCCO2)cc1` (stereo not drawn), -0.0295. Under `Cc1ccc(Cl)cc1Nc1nc(-c2sc(NC(=O)c3cccc(Cl)c3)nc2C)cs1` stands 0.00487; under `COc1cccc2cc(NC(=O)C3CCCCC3)c(=O)oc12`, -0.121; under `CCN(CC)S(=O)(=O)c1ccc(OCC(=O)NCc2ccccc2)cc1`, 0.0793. `Clc1ccc(Cc2ccc(Cl)nn2)c(Cl)c1` had a z-score of -0.119. With `CC(C)Cn1c(-c2csc3c2CCCC3)n[nH]c1=S`, the z-score is -1.59. Molecule `COc1cccc(NC(=O)CCSc2ccc(C)cc2)c1` showed a z-score of 0.275.

`CN(C1CCS(=O)(=O)C1)S(=O)(=O)c1ccc(N2CCCC2=O)cc1` (stereo not drawn) registered a z-score of 0.131. `COC(=O)c1ccc(C(=O)OC)c(NC(=S)N2CCCCC2)c1` showed a z-score of 0.0622. With `COC(=O)C1=C(C(=O)OC)SC(=C2C(=S)C(C)(C)N(C(=O)C3CC3)c3ccccc32)S1` the figure was 0.125. `CCOc1cnn(Cc2ccccc2)c(=O)c1SCc1ccccc1` came in with a z-score of -0.596.

`CCCOc1ccc(-c2nc(OC)c3ccccc3n2)cc1`: the z-score was -0.998. With `COCCCn1cnc2c(c1=O)c1nc3ccccc3nc1n2-c1ccccc1` the figure was -0.0291; with `O=C(/C=C/c1cccc([N+](=O)[O-])c1)Nn1c(-c2ccccc2F)nc2ccccc2c1=O`, 0.0632. With `O=C(Nc1ccc(Oc2ccccc2)cc1)c1cnc2n(c1=O)CCS2` the figure was -0.622; with `CCN(CC)C(=O)CSc1nnc(CCNC(=O)OC(C)(C)C)o1`, 0.491; with `O=C(CN1CCN(c2ncccn2)CC1)N1CCCc2c1c(=O)oc1ccc(O)cc21`, 0.288. Under `CCOC(=O)N1CCN(C(=O)c2ccc3c(c2)NC(=O)C(N2CCOCC2)S3)CC1` (stereo not drawn) stands 0.466; under `Cn1cc(CNC(=O)COc2ccc(Cl)cc2Cl)cn1`, 0.182; under `Clc1nnc(N/N=C/c2ccccc2)c2ccccc12`, -0.61. In the case of `Cc1ccc(-c2csc(NC(=O)/C=C/c3cccs3)n2)cc1C`, the z-score is -2.16. The molecule `O=C1NC(Cc2c[nH]c3ccccc23)C(=O)N1CCOc1ccc(F)cc1` (stereo not drawn) had a z-score of -0.0718. Take `COc1ccccc1C(=O)Nc1ccccc1C(=O)N1CCCC1`: the z-score came to 0.00209.

Consider `Clc1ccc(COc2ccccn2)cc1Cl`, for which the z-score was 0.185. Molecule `CCOC(=O)c1[nH]c(C)c(C(=O)OCCOc2cccc(C)c2)c1C` registered a z-score of -0.07. `COc1cccc2c(=O)n(CC(=O)N3CCCCC3)ccc12`: the z-score is -0.0457. Under `CCC(CC)C(=O)NCc1ccc2c(c1)cc(C)n2C` stands -0.18; under `Cc1nn(-c2ccccc2)c(Cl)c1/C=C1\N=C(c2ccccc2)OC1=O`, -0.615; under `COc1ccc(C(=O)Nc2ccc(/C(C)=N/NC(=O)c3ccccc3O)cc2)cc1OC`, -0.529. Under `CC(C)Sc1nc2c(cnn2-c2ccc(F)cc2)c(=O)[nH]1` stands -0.151; under `COC(=O)COc1cccc(NS(=O)(=O)c2ccc(NC(C)=O)cc2)c1`, -0.377.

In turn, `COc1ccc(NC(=O)Cn2nc3n(c2=S)CCC3)cc1` returned a z-score of 0.157. Under `C=CCOC(=O)/C(=C/c1ccco1)NC(=O)/C=C/c1ccccc1` stands -0.338; under `Cc1nnc(NC(=O)C2c3ccccc3Oc3ccccc32)s1`, -1.17. With `CC(C)CC(=O)N1CCC(O)(CS(=O)(=O)Cc2ccccc2)CC1` the figure was 0.0421; with `CCOC(=O)c1ccc(Nc2ncnc3c2cnn3C)cc1`, 0.0472; with `CC(=O)c1ccc(OC(=O)C(CCS(C)(=O)=O)N2C(=O)c3ccccc3C2=O)cc1` (stereo not drawn), -0.239. With `Cn1c(-c2cccc(Br)c2)cnc1NCc1cccnc1` the figure was -0.125; with `COC(=O)Cc1[nH]nc2c1C(C1C=CCCC1)C(C#N)=C(N)O2` (stereo not drawn), -1; with `CCOC(=O)C1=C(C)NC(=O)C1CC(=O)Nc1ccccc1` (stereo not drawn), 0.0821.

The molecule `O=C(NC1CC2CCC(C1)N2Cc1ccco1)c1ccccc1` (stereo not drawn) registered a z-score of 0.21.

The molecule `Cc1ccc(N(C=NC#N)CC(=O)N2CCN(c3ccccc3)CC2)cc1` gave a z-score of -0.535. Consider `OCc1nc2ccccc2n1C/C=C/c1ccccc1`, for which the z-score was 0.00864.

Molecule `O=C(c1ccc(-c2ccc([N+](=O)[O-])cc2)o1)N1CCCCC1` registered a z-score of -0.859. Under `CC1(C)Cc2c(c(-c3ccccc3)[nH]c(=O)c2C#N)CS1` stands -0.694; under `CCC1CCCCN1C(=S)Nc1ccc(SC(F)F)cc1` (stereo not drawn), 0.737. With `CCc1c(C#N)c(SCCC(=O)Nc2ccc(F)cc2)nc2c1C(=O)CC(C)(C)C2` the figure was -1; with `CCOC(=O)c1cccc(NC(=O)CCS(=O)(=O)c2ccc(Br)s2)c1`, 0.288.

In the case of `COc1cc(CNn2nnnc2N)ccc1OCC(=O)NC(C)(C)C`, the z-score is -0.0504. Under `C=CCC(CC=C)(NC(=O)c1ccccc1)c1ccccc1` stands -0.136.

Turning to `N#C/C(=C/c1ccc(N2CCCCC2)o1)C(=O)Nc1ccc(Cl)cc1`, the z-score was determined as 0.159.

On to `Cc1cnnn1-c1ccc(C(=O)CCl)cc1`, for which the z-score was -0.179. Under `Cn1c(O)c(C(C#N)=C2N=c3ccccc3=N2)c2ccccc21` stands -0.0436. With `FC(F)(F)c1cc(Oc2ccccc2)nc(-c2ccccn2)n1` the figure was -0.15; with `O=C(CNc1ccc2c(c1)OCO2)N/N=C\c1cn(Cc2ccc(F)cc2)c2ccccc12`, -0.225; with `CC(C)OC(=O)CSc1nnc(-c2ccc(C(C)(C)C)cc2)n1N`, 0.0591. Regarding `CCNc1nc(C)nc2c1oc1ccccc12`, the z-score is -1.25. Under `CS/C(=N\S(=O)(=O)c1cccs1)NC(=O)CSc1nc2ccccc2s1` stands -1.16; under `CCc1ccc(N=CC23c4ccccc4C(c4ccccc42)C2C(=O)N(c4ccc(OC)cc4)C(=O)C23)cc1` (stereo not drawn), 0.16. `COc1ccc2c(c1)C1NC(=S)NC(C)(O2)C1C(=O)Nc1ccccc1C` (stereo not drawn) registered a z-score of 0.0257. `COc1ccc(CCc2nc(C)ccc2O)cc1`: the z-score is -0.12 and -0.077. With `Cc1ccc(N2CC(C(=O)N/N=C/c3cccc([N+](=O)[O-])c3)CC2=O)cc1` (stereo not drawn) the figure was -0.282; with `CCOC(=O)/C(C#N)=C/c1cc(C)n(-c2ccccc2)c1C`, 0.812; with `CCCc1cc(=O)[nH]c(SCC(=O)NCCCC(=O)OCC)n1`, -0.306. Under `O=C(Cn1cccc1)N1CCN(C(c2ccccc2)c2ccccc2)CC1` stands -0.556; under `Cc1cc(=O)[nH]c(SCc2nc3ccccc3n2Cc2ccccc2)n1`, -0.21.
